PubChem BioAssay AID1346428 (National Center for Advancing Translational Sciences (NCATS), 2018)
About 1,200 (2.5%) of roughly 48,000 compounds were called active. About 2% were inconclusive and are not listed.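 How the source made its calls: active means activation of at least 60% and not above a set upper limit (about 1 call in 100 departs from these limits); inconclusive means activation of 40% to 60%, or above that upper limit; inactive means activation under 40%.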 This is one part of the list.
Further: 0% is about no effect.

These compounds were tested against Probable G-protein coupled receptor 32 (Homo sapiens) (UniProt O75388) (assay: qHTS for Agonists of Human Resolvin D1 Receptor DRV1). Details: CHO-K1 GPR32 beta-arrestin PathHunter luminescence, 90 min; at 76.9 µM; hits give high values; zero percent set by DMSO-only wells.
Sequence of UniProt O75388 (O75388 whole entry, looked up, the tested form may be a part): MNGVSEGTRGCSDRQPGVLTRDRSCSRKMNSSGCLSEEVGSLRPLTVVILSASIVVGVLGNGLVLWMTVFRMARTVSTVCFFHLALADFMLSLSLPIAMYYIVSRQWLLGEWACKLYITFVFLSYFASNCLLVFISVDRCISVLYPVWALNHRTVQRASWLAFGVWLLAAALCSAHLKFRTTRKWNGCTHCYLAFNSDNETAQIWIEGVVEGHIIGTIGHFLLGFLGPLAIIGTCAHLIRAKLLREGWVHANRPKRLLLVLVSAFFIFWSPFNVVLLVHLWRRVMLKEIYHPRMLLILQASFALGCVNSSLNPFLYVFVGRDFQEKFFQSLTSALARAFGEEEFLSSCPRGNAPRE
Summary of the method: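 PathHunter enzyme-fragment complementation, CHO-K1 GPR32 stable line; 2,500 cells/well, overnight attach; cpd 90 min 37 °C 5% CO2; detection reagent 1 h RT; chemiluminescence. DMSO = EC0.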
For `Cc1ccc(NC(=O)Cn2c(-c3ccc4c(c3)OCO4)cn(-c3ccccc3)c2=O)cc1`, the activation was inactive: -24.5%. In the case of `Cc1ccc2c(c1)c1c(c(=O)n(Cc3ccccc3)c(=O)n1CC(=O)Nc1ccccc1C)n2C`, the activation is reported as inactive: -6.14%. For `Cc1ccc(S(=O)(=O)Nc2cc3c(cc2N2CCOCC2)n(C)c(=O)n3C)c(C)c1`, the activation was inactive: -12%. With `CCCCCNC(=O)C(=O)NCC(c1ccc2c(c1)OCO2)N1CCOCC1` (configuration not stated) the activation was inactive: -10.3%. `CCC(C(=O)Nc1cccc(C#N)c1)n1c(=O)c(-c2ccccc2NC(C)=O)nc2ccccc21` (configuration not stated) was tested, and the activation was inactive: -39.6%. `Cc1ccc(CSc2nc(=O)c3c(n2C)NC(=O)CC3c2ccc(OC(C)C)cc2)cc1` (configuration not stated) was tested, and the activation was inactive: -6.84%. `COC(=O)C1=C(C)NC(C)=C(C(=O)OCCc2ccc(N3CCN(C(c4ccccc4)c4ccccc4)CC3)cc2)C1c1cccc([N+](=O)[O-])c1` (configuration not stated) was tested, and the activation was inactive: -0.0168%. With `CCN1CCC(N(Cc2cccc(OC)c2)C(=O)Nc2ccc(C)cc2Cl)CC1` the activation was inactive: -9.95%. For `CCCN(CCc1ccccc1)C1CCc2c(O)cccc2C1` (configuration not stated), the activation was inactive: -21.7%. With `CCc1nnc(NC(=O)CSCc2cc(=O)c3ccc(C)cc3[nH]2)s1` the activation was inactive: -12.2%. For `N.N.N.N.N.N.N.N.N.N.N.N.N.N.O.O.[Ru+4].[Ru+5].[Ru+5]`, the activation was inactive: -17.4%. In the case of `COc1cc(NC(=O)c2cnn(-c3cccc(F)c3)c2C2CCNCC2)cc(OC)c1OC`, the activation is reported as inactive: 23.5%. In the case of `Cc1cc(O)c(C(c2ccccc2Cl)N2CCN(c3ccccc3)CC2)c(=O)n1Cc1ccco1` (configuration not stated), the activation is reported as inactive: -8.77%. In the case of `COc1cc(CN(C(=O)COc2ccc(C)c(C)c2)c2ccccn2)cc(OC)c1OC`, the activation is reported as inactive: -12.7%. `COc1ccc(NC(=O)CN(Cc2ccccc2)S(=O)(=O)c2ccc3nc(C)sc3c2)cc1` was tested, and the activation was inactive: -10.6%. `O=C(Cn1cccc1C(=O)c1ccccc1)NCc1ccc(F)cc1` was tested, and the activation was inactive: -17.9%. With `CN1C(C(=O)Nc2ccc(OC(F)(F)F)cc2)=CC(c2ccc3c(c2)OCO3)=NS1(=O)=O` the activation was inactive: -10.2%. `COc1cc2c(=O)n(Cc3ccccc3)c(=O)n(CC(=O)Nc3cc(C(F)(F)F)ccc3Cl)c2cc1OC` was tested, and the activation was inactive: -1.3%. `COC(=O)c1cc2oc(C)cc2n1Cc1c(C)cc(C)cc1C` was tested, and the activation was inactive: -19.8%. For `CCN(CC)c1ccc(NS(=O)(=O)c2ccc3c(c2)CCCN3C(C)=O)c(C)c1`, the activation was inactive: -6.99%. For `COc1cc2nc(SCC(=O)Nc3ccc(F)cc3)n3nc(CCn4c(C)nc5ccccc54)nc3c2cc1OC`, the activation was inactive: -8.55%. In the case of `CCOC(=O)c1c(C)oc2ncnc(NCCc3ccccc3)c12`, the activation is reported as inactive: 19.2%. With `CCc1ccc(N2CCn3c2nc2c3c(=O)n(Cc3cccc(C)c3)c(=O)n2C)cc1` the activation was inactive: -13.1%. With `COc1ccc(C2c3c(n(C)c4ccccc34)C(=O)N2CC(=O)Nc2ccc(Cl)cc2)cc1` (configuration not stated) the activation was inactive: -28.3%. With `CCCN1CCN(CCNC(=O)Nc2cc(OC)cc(OC)c2)CC1` the activation was inactive: -7.47%. For `Cc1ccc(NC(=O)C(=O)NCC(c2ccc3c(c2)OCO3)N2CCOCC2)c(C)c1` (configuration not stated), the activation was inactive: -0.96%. With `O=C(CSc1ncc2c(n1)-c1ccccc1N(Cc1ccc(F)cc1)S2(=O)=O)c1ccc(Br)cc1` the activation was inactive: -3.24%. For `Cc1ccc(OC(=O)c2snnc2C)cc1C`, the activation was inactive: -0.261%. For `CC(C)c1ccc(OCc2cc(=O)n3c4c(sc3n2)CCCC4)cc1`, the activation was inactive: -0.0055%. `Cc1cccc(NC(=O)CSc2nc3ccc(NC(=O)c4cccs4)cc3s2)c1` was tested, and the activation was active: 64.3%. With `CCc1ccc(Nc2cc(C)nc3nc(Cc4ccc(Cl)cc4)nn23)cc1` the activation was inactive: -1.75%. In the case of `COc1ccc(OCC(=O)Nc2cc(-c3cccc(Cl)c3)nn2-c2ccccc2)cc1`, the activation is reported as active: 100%. `N#Cc1ccc(C(=O)N2CCN(c3nc4ccc(F)cc4s3)CC2)cc1` was tested, and the activation was inactive: 29.6%. For `O=C(NC1CCCCC1)c1ccc2c(c1)sc1nc(-c3ccccc3)cn12`, the activation was inactive: 38.5%. In the case of `CCOC(=O)c1ccc(CSc2nnc3cc(C)c4ccccc4n23)cc1`, the activation is reported as inactive: -33.5%. With `COc1ccccc1NC(=O)CN(c1ccc(C(C)C)cc1)S(=O)(=O)c1c(C)noc1C` the activation was inactive: -29.5%. For `CCN(CC)CCN(C(=O)c1ccco1)c1nc2c(C)cccc2s1`, the activation was inactive: 40.3%. With `COc1cc2c(cc1OC)C(c1ccc(Cl)cc1)N(c1ccc(C)c(F)c1)C(=O)C2` (configuration not stated) the activation was inactive: -7.38%. With `COc1ccc(-c2oc3ncn4nc(-c5ccc(Cl)cc5)nc4c3c2-c2ccc(OC)cc2)cc1` the activation was inactive: -8.99%. For `O=C(c1ccc2c(c1)OCCO2)N(Cc1cccnc1)c1nc2ccc(F)cc2s1`, the activation was inactive: -5.45%. For `CCOc1ccc(CNC(=O)c2cc3c(=O)n(C)c4ccccc4c3s2)cc1`, the activation was inactive: 19.4%. `Cc1ccc(NC(=O)Cn2c(=O)n(Cc3ccco3)c(=O)c3ccccc32)cc1` was tested, and the activation was inactive: -12.4%.
